Among all 390,000 compounds or so, about 4,700 (1.2%) were called active. Inconclusive means that the source gave no clear call. Such entries were picked first, then a sample of the others. The call rests on the fitted dose curve; in most records, active means well fitted inhibition curve with a large enough effect; inconclusive means small, poorly fitted or top-dose-only effect, or another doubt; inactive means no such curve, though single readings can be large or run the other way. Potencies of inconclusive entries are doubtful fits and often do not repeat.
The compounds below were run against DNA polymerase eta (Homo sapiens) (UniProt Q9Y253) (assay: qHTS for Inhibitors of Polymerase Eta). Conditions: recombinant Pol eta, fluorescent DNA replication assay; series mostly up to 114 µM.
Summary of the method: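 Pol eta (10 nM) was preincubated with compounds for 15 min at room temperature, after which fluorescent replication substrate (50 nM final) was added to start the reaction. Fluorescence was read kinetically at 0 and 10 min.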
Potency means the concentration at half of the fitted maximal effect; tags describe the fitted curve by direction and shape.

Sequence of UniProt Q9Y253 (Q9Y253 whole entry, looked up): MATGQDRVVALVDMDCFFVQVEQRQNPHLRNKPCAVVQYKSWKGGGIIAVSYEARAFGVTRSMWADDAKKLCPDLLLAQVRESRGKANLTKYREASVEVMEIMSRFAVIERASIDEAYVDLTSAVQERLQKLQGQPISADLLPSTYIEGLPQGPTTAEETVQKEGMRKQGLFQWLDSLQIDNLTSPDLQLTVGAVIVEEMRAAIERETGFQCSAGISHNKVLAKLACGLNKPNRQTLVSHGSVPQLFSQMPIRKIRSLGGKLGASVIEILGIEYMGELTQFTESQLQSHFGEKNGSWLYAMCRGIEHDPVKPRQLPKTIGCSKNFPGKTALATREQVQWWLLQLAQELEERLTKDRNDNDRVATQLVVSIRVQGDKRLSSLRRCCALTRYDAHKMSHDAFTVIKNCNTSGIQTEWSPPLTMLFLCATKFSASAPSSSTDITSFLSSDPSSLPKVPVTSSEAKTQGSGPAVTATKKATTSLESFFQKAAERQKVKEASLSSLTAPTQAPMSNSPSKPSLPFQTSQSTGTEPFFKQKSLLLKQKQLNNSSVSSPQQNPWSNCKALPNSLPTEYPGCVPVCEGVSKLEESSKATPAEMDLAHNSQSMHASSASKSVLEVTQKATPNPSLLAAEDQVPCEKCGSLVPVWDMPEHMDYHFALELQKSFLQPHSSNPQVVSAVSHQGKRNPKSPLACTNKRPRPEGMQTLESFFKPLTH

| SMILES | Potency |
| --- | --- |
| COc1ccc(C(NC(=O)/C=C/c2ccco2)c2ccc(OC)cc2)cc1 | inconclusive: 17.8 µM [inhibitor, full curve, poor fit] |
| Cn1c(=O)n(-c2ccc3c(c2)OCO3)c2nc(-c3ccccc3)nc(C(N)=O)c21 | inconclusive: 89.1 µM [inhibitor, partial curve, poor fit] |
| COc1ccc(C)cc1NC(=O)c1ccc2c(SCC(=O)O)c3c(nc2c1)CCCC3 | inactive |
| CCOc1ccc(C(=O)NC(=S)Nc2cc(C)ccn2)cc1[N+](=O)[O-] | inactive |
| Cc1cccc(NC(=O)CN2C(=O)S/C(=C\c3ccc(O)c([N+](=O)[O-])c3)C2=O)c1 | inconclusive: 56.2 µM [inhibitor, partial curve, poor fit] |
| O=C(/C=C/c1ccc(O)c(O)c1)NC(=O)c1ccccc1O | active: 7.94 µM |
| O=C(NNC(=O)c1ccccc1Cl)c1ccccc1Cl | inactive |
| Cc1ccc(S(=O)(=O)NCCCNS(=O)(=O)c2ccc(C)cc2)cc1 | inconclusive: 39.8 µM [inhibitor, partial curve, poor fit] |
| NC(=O)CC[C@@H]1NC(=O)[C@H](CO)NC(=O)c2cc([N+](=O)[O-])cc(I)c2NCCC[C@@H](C(N)=O)NC(=O)[C@H](Cc2ccc(O)cc2)NC1=O | active: 89.1 µM |
| COc1ccc(/C=C/C(=O)NC(CCSC)C(=O)O)cc1 (stereo unspecified) | inconclusive: 89.1 µM [inhibitor, partial curve, poor fit] |
| C/C(=N\Nc1nc2ccccc2c(=O)n1O)c1ccco1 | inconclusive: 17.8 µM [inhibitor, full curve, poor fit] |
| Nc1ccc(-n2cnc3cc([N+](=O)[O-])ccc32)cc1 | inconclusive: 35.5 µM [inhibitor, partial curve, poor fit] |
| COC/C=C/C1=CC2=CC(=O)C(C)(OC(=O)c3cnc4ccccc4n3)C(=O)C2=CN1c1ccccc1 (stereo unspecified) | active: 25.1 µM |
| O=C(O)CCN1CC2([N+](=O)[O-])CC=C(OCCO)C([N+](=O)[O-])(C1)C2 (stereo unspecified) | inactive |
| COc1cccc(NS(=O)(=O)c2ccc3c(c2)C2C=CCC2C(c2ccc(C(=O)O)cc2)N3)c1 (stereo unspecified) | active: 3.16 µM |
| COC(=O)CSc1nc(-c2ccccc2)cc(-c2ccco2)c1C#N | inactive |
| CCc1nc(NC2CCCCC2)c(C#N)c2c1COC(C)(C)C2 | inconclusive: 89.1 µM [inhibitor, partial curve, poor fit] |
| O=C(Nc1nc(-c2ccccc2)cs1)C1COc2ccccc2O1 (stereo unspecified) | inconclusive: 11.2 µM [inhibitor, partial curve, poor fit] |
| Nc1c(C(=O)OCC(=O)Nc2cccc([N+](=O)[O-])c2)[nH]c(=O)[nH]c1=O | active: 25.1 µM |
| O=C(O)c1ccc(OCc2occc2C(=O)O)cc1 | inconclusive: 31.6 µM [inhibitor, single point] |
| Cn1cccc1C(=O)NC(=O)COC(=O)CNS(=O)(=O)c1ccc(Br)cc1 | inconclusive: 17.8 µM [inhibitor, single point] |

| SMILES | Potency |
| --- | --- |
| O=C(Nc1c2c(nn1-c1cccc(Cl)c1)CS(=O)(=O)C2)c1ccc2c(c1)OCO2 | inconclusive: 31.6 µM [inhibitor, partial curve, poor fit] |
| Cn1cc([N+](=O)[O-])c(C(=O)Nc2cc(Oc3ccccc3)cc([N+](=O)[O-])c2)n1 | inconclusive: 44.7 µM [inhibitor, partial curve, poor fit] |
| CN(CC(=O)Nc1nc2ccccc2s1)S(=O)(=O)c1ccccc1 | inconclusive: 35.5 µM [inhibitor, partial curve, poor fit] |
| COc1ccc(NC(=O)N(C)C[C@H]2Oc3ccc(NC(=O)Nc4c(C)noc4C)cc3C(=O)N([C@H](C)CO)C[C@H]2C)cc1 | inactive |
| COc1ccc(/C=N/n2cnc3c([nH]c4ccc(F)cc43)c2=O)cc1CN1CCCC1 | inconclusive: 50.1 µM [inhibitor, partial curve] |
| Cn1nc(-c2ccc(Cl)cc2)c2cc(C(=O)N3CCCC3)sc21 | inconclusive: 3.16 µM [inhibitor, partial curve, poor fit] |
| CCN(CC)c1cc(C)c2ccccc2n1 | inconclusive: 89.1 µM [inhibitor, single point] |
| COc1ccc2cc(C(=O)Nc3ccc(F)cc3)sc(=O)c2c1OC | inconclusive: 20 µM [inhibitor, partial curve] |
| Cc1sc2nc(SCC(=O)N(C)Cc3ccccc3)n(-c3ccccc3)c(=O)c2c1C | inconclusive: 39.8 µM [inhibitor, partial curve, poor fit] |
| Cc1ccc(S(=O)(=O)N2CCN(c3ncnc4sccc34)CC2)cc1C | inconclusive: 17.8 µM [inhibitor, partial curve, poor fit] |
| CC(C)N(C(=O)CSc1nnc(CN2CCCCCC2=O)n1-c1ccccn1)C(C)C | inconclusive: 100 µM [inhibitor, partial curve, poor fit] |
| O=C(CCC(=O)c1cccs1)NNC(=O)c1ccccc1O | active: 28.2 µM |
| Cc1ccc(OCCNC(=O)CCc2nc3sc4c(c3c(=O)[nH]2)CCCC4)cc1 | inconclusive: 39.8 µM [inhibitor, partial curve] |
| O=C1OCCC1Sc1nc2cc(Cl)ccc2n1Cc1ccccc1 (stereo unspecified) | inconclusive: 28.2 µM [inhibitor, partial curve, poor fit] |
| CC(CCc1ccccc1)NC(=O)COC(=O)c1ccc(S(C)(=O)=O)c([N+](=O)[O-])c1 (stereo unspecified) | inconclusive: 44.7 µM [inhibitor, partial curve] |
| CCOCCCN1C(=O)c2[nH]nc(-c3ccccc3O)c2C1c1ccc(CC)cc1 (stereo unspecified) | inactive |
| CC(=O)Nc1ccc(S(=O)(=O)CC(=O)CS(=O)(=O)c2ccc(NC(C)=O)cc2)cc1 | active: 35.5 µM |
| O=C1C(Cl)=C(Oc2ccccc2)C(=O)c2ccccc21 | active: 7.94 µM |
| Cc1ccnc2nc(C(=O)Nc3nc(-c4ccccn4)cs3)nn12 | active: 79.4 µM |
| O=C(Nc1ccc2nc(SCC(=O)N3CCCC3)sc2c1)c1cccc(Br)c1 | inactive |
